Reference: the supplement of paper PMC11741623
Some of the results follow. Interaction screen of human proteins with wild-type SARS-CoV-2 proteins by split-DHFR complementation in yeast, 1 µg/mL methotrexate. Value = fitness of the pair (three or more lineages) minus that of the viral protein without a human partner, on a scale set by negative (0) and fused positive (1) controls, mean of up to three cultures; higher = more likely to interact. Active = false discovery rate below 0.05 (one-sided t-test) in at least one culture. Nearly all pairs are not hits, and differences among them are mostly noise (correlation between cultures about 0.3); most hits were seen in one culture only. Human sequences are the Swiss-Prot entries looked up by gene name; the clone may be another isoform. NSP2 values were corrected by the authors for a growth advantage. Listed are human proteins with a hit and a random twelfth of the others.

B1: SNAP29, O95721 (protein)
chain: MSAYPKSYNPFDDDGEDEGARPAPWRDARDLPDGPDAPADRQQYLRQEVLRRAEATAASTSRSLALMYESEKVGVASSEELARQRGVLERTEKMVDKMDQDLKISQKHINSIKSVFGGLVNYFKSKPVETPPEQNGTLTSQPNNRLKEAISTSKEQEAKYQASHPNLRKLDDTDPVPRGAGSAMSTDAYPKNPHLRAYHQKIDSNLDELSMGLGRLKDIALGMQTEIEEQDDILDRLTTKVDKLDVNIKSTERKVRQL
B2: RBM4, Q9BWF3 (protein)
chain: MVKLFIGNLPREATEQEIRSLFEQYGKVLECDIIKNYGFVHIEDKTAAEDAIRNLHHYKLHGVNINVEASKNKSKTSTKLHVGNISPTCTNKELRAKFEEYGPVIECDIVKDYAFVHMERAEDAVEAIRGLDNTEFQGKRMHVQLSTSRLRTAPGMGDQSGCYRCGKEGHWSKECPIDRSGRVADLTEQYNEQYGAVRTPYTMSYGDSLYYNNAYGALDAYYKRCRAARSYEAVAAAAASVYNYAEQTLSQLPQVQNTAMASHLTSTSLDPYDRHLLPTSGAAATAAAAAAAAAAVTAASTSYYGRDRSPLRRATAPVPTVGEGYGYGHESELSQASAAARNSLYDMARYEREQYADRARYSAF
B3: VIT, Q6UXI7 (protein)
chain: MRTVVLTMKASVIEMFLVLLVTGVHSNKETAKKIKRPKFTVPQINCDVKAGKIIDPEFIVKCPAGCQDPKYHVYGTDVYASYSSVCGAAVHSGVLDNSGGKILVRKVAGQSGYKGSYSNGVQSLSLPRWRESFIVLESKPKKGVTYPSALTYSSSKSPAAQAGETTKAYQRPPIPGTTAQPVTLMQLLAVTVAVATPTTLPRPSPSAASTTSIPRPQSVGHRSQEMDLWSTATYTSSQNRPRADPGIQRQDPSGAAFQKPVGADVSLGLVPKEELSTQSLEPVSLGDPNCKIDLSFLIDGSTSIGKRRFRIQKQLLADVAQALDIGPAGPLMGVVQYGDNPATHFNLKTHTNSRDLKTAIEKITQRGGLSNVGRAISFVTKNFFSKANGNRSGAPNVVVVMVDGWPTDKVEEASRLARESGINIFFITIEGAAENEKQYVVEPNFANKAVCRTNGFYSLHVQSWFGLHKTLQPLVKRVCDTDRLACSKTCLNSADIGFVIDGSSSVGTGNFRTVLQFVTNLTKEFEISDTDTRIGAVQYTYEQRLEFGFDKYSSKPDILNAIKRVGYWSGGTSTGAAINFALEQLFKKSKPNKRKLMILITDGRSYDDVRIPAMAAHLKGVITYAIGVAWAAQEELEVIATHPARDHSFFVDEFDNLHQYVPRIIQNICTEFNSQPRN
B4: LURAP1, Q96LR2 (protein)
chain: MEGTVESQTPDLRDVEGKVGRKTPEGLLRGLRGECELGTSGALLLPGASSTGHDLGDKIMALKMELAYLRAIDVKILQQLVTLNEGIEAVRWLLEERGTLTSHCSSLTSSQYSLTGGSPGRSRRGSWDSLPDTSTTDRLDSVSIGSFLDTVAPSELDEQGPPGAPRSEMDWAKVIAGGERARTEVDVAATRLGSLRAVWKPPGERLQGGPPESPEDESAKLGFEAHWFWEQCQDDVTFL

Molecular target: SARS-CoV-2 M
Assay: yeast fitness gain over the viral ORF with no human partner (scaled fitness); higher = more likely to interact
Procedure: (§1)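 Split mouse DHFR complementation in pooled diploid yeast: human ORFeome clones carry one fragment and viral ORFs the other; barcoded lineages compete in 1 µg/mL methotrexate and fitness is read by barcode sequencing in up to three cultures.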

Binder	yeast fitness gain
B1	inactive: -0.0078
B2	inactive: -0.0522
B3	inactive: -0.0184
B4	inactive: 0.0116

Molecular target: SARS-CoV-2 N
Assay: as above
Procedure: as §1

Binder	yeast fitness gain
B1	inactive: 0.104
B2	inactive: -0.228
B3	inactive: 0.092
B4	inactive: 0.0655

Molecular target: SARS-CoV-2 NSP10
Assay: as above
Procedure: as §1

Binder	yeast fitness gain
B1	inactive: -0.0195
B2	inactive: -0.208
B3	inactive: 0.0551
B4	inactive: -0.0403

Molecular target: SARS-CoV-2 NSP12
Assay: as above
Procedure: as §1

Binder	yeast fitness gain
B1	inactive: 0.0587
B2	inactive: 0.0405
B3	inactive: -0.00982
B4	inactive: 0.0514

Molecular target: SARS-CoV-2 NSP13
Assay: as above
Procedure: as §1

Binder	yeast fitness gain
B1	inactive: 0.0371
B2	inactive: 0.0349
B3	inactive: 0.0126
B4	inactive: -0.00433

Molecular target: SARS-CoV-2 NSP14
Assay: as above
Procedure: as §1

Binder	yeast fitness gain
B1	inactive: 0.0769
B2	inactive: -0.205

Molecular target: SARS-CoV-2 NSP15
Assay: as above
Procedure: as §1

Binder	yeast fitness gain
B1	inactive: -0.0285
B2	inactive: -0.00938
B3	inactive: -0.0821

Molecular target: SARS-CoV-2 NSP16
Assay: as above
Procedure: as §1

Binder	yeast fitness gain
B1	inactive: 0.116
B2	inactive: -0.376
B3	inactive: -0.0628
B4	inactive: -0.035

Molecular target: SARS-CoV-2 NSP2
Assay: as above
Procedure: as §1

Binder	yeast fitness gain
B1	inactive: -0.107
B2	inactive: -0.0908
B3	inactive: -0.156
B4	inactive: -0.089

Molecular target: SARS-CoV-2 NSP4
Assay: as above
Procedure: as §1

Binder	yeast fitness gain
B1	inactive: 0.0434
B2	inactive: 0.0529

Molecular target: SARS-CoV-2 NSP5
Assay: as above
Procedure: as §1

Binder	yeast fitness gain
B1	inactive: 0.0107
B2	inactive: -0.000383
B3	inactive: 0.0292
B4	inactive: 0.0973

Molecular target: SARS-CoV-2 NSP6
Assay: as above
Procedure: as §1

Binder	yeast fitness gain
B1	inactive: 0.00632
B2	inactive: -0.0869
B3	inactive: 0.0653
B4	inactive: 0.0143

Molecular target: SARS-CoV-2 NSP7
Assay: as above
Procedure: as §1

Binder	yeast fitness gain
B1	inactive: 0.00799
B2	inactive: 0.091
B3	inactive: 0.106
B4	inactive: 0.00338

Molecular target: SARS-CoV-2 NSP8
Assay: as above
Procedure: as §1

Binder	yeast fitness gain
B1	inactive: 0.131
B2	inactive: 0.0696
B3	inactive: -0.0351
B4	inactive: 0.0641

Molecular target: SARS-CoV-2 NSP9
Assay: as above
Procedure: as §1

Binder	yeast fitness gain
B1	inactive: 0.0698
B3	inactive: -0.0518
B4	inactive: 0.0819

Molecular target: SARS-CoV-2 ORF10
Assay: as above
Procedure: as §1

Binder	yeast fitness gain
B1	inactive: -0.114
B2	inactive: 0.11
B4	inactive: 0.00367

Molecular target: SARS-CoV-2 ORF3A
Assay: as above
Procedure: as §1

Binder	yeast fitness gain
B1	inactive: -0.0295
B2	inactive: 0.0249
B3	inactive: 0.0382
B4	inactive: -0.0488

Molecular target: SARS-CoV-2 ORF3B
Assay: as above
Procedure: as §1

Binder	yeast fitness gain
B1	inactive: 0.0508
B2	inactive: -0.0975
B3	inactive: -0.000915
B4	inactive: -0.0118

Molecular target: SARS-CoV-2 ORF6
Assay: as above
Procedure: as §1

Binder	yeast fitness gain
B1	inactive: 0.0375
B2	inactive: 0.00827
B3	inactive: 0.0722
B4	inactive: -0.0156

Molecular target: SARS-CoV-2 ORF7A
Assay: as above
Procedure: as §1

Binder	yeast fitness gain
B1	inactive: -0.0335
B2	inactive: -0.0659
B3	inactive: 0.0315
B4	inactive: 0.00222

Molecular target: SARS-CoV-2 ORF7B
Assay: as above
Procedure: as §1

Binder	yeast fitness gain
B1	inactive: -0.00372
B2	inactive: -0.0471
B3	inactive: -0.0619
B4	inactive: -0.0669

Molecular target: SARS-CoV-2 ORF8
Assay: as above
Procedure: as §1

Binder	yeast fitness gain
B1	inactive: -0.000652
B2	inactive: -0.00136
B3	inactive: 0.0236
B4	inactive: 0.0315

Molecular target: SARS-CoV-2 ORF9B
Assay: as above
Procedure: as §1

Binder	yeast fitness gain
B1	inactive: 0.0116
B2	inactive: -0.00188
B3	inactive: 0.11
B4	inactive: -0.0477

Molecular target: SARS-CoV-2 ORF9Bwu (the 73-codon ORF)
Assay: as above
Procedure: as §1

Binder	yeast fitness gain
B1	inactive: 0.0878
B2	inactive: 0.0561
B3	inactive: 0.0607
B4	inactive: -0.149

Molecular target: SARS-CoV-2 S
Assay: as above
Procedure: as §1

Binder	yeast fitness gain
B1	inactive: 0.055
B2	inactive: -0.0737
B3	inactive: -0.135
B4	inactive: -0.159

Molecular target: SARS-CoV-2 NSP1
Assay: as above
Procedure: as §1

Binder	yeast fitness gain
B2	inactive: -0.0722
B3	inactive: -0.0202
B4	inactive: -0.0206
